About 14,000 (4.5%) of roughly 310,000 compounds showed an effect of 50% or more. The effect is printed as a negative number. This is one part of the list.
Molecular target: human ether-à-go-go-related gene (hERG) potassium channel (human, UniProt Q12809)
Experiment: primary screen, population patch clamp on CHO cells stably expressing hERG
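Further: peak tail current of the secondary pulse compared with the same well before compound.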

human ether-à-go-go-related gene (hERG) potassium channel, sequence (Q12809 whole entry, looked up): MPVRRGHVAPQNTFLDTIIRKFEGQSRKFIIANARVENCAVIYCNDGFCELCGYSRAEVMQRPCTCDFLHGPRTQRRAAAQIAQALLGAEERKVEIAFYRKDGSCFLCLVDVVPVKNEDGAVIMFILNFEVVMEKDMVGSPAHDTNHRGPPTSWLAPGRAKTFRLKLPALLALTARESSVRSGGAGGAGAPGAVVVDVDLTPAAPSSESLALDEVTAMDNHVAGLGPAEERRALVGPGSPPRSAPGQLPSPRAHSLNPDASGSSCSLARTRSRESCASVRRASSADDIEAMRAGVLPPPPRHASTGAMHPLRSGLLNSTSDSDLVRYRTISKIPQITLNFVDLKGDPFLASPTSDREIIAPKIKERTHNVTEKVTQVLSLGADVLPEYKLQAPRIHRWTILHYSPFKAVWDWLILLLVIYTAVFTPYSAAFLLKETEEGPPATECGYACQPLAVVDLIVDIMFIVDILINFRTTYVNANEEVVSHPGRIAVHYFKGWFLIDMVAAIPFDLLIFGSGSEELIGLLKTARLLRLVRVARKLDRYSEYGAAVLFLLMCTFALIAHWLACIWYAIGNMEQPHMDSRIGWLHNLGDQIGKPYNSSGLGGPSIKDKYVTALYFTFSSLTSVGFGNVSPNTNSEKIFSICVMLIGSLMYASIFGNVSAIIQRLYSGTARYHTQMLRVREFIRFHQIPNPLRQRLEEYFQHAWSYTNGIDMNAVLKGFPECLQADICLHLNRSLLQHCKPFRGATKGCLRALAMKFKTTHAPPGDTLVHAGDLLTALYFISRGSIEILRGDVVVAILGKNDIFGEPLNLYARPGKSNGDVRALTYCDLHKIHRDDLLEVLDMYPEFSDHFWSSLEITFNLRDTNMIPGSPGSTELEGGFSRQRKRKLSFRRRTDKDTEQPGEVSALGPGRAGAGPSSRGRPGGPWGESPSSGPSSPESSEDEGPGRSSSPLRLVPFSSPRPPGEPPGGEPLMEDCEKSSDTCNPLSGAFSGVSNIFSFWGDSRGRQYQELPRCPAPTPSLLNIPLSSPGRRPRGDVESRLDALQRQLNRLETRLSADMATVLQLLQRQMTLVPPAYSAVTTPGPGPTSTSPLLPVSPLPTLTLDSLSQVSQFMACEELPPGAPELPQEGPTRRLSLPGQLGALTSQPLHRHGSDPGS

| Compound | hERG current change (%, negative = inhibition) at 10uM |
| --- | --- |
| O=C1CCCN2N=C(SCC(=O)N3CCCCC3)SC2=N1 | 13.2% |
| COc1cc(C2c3c(-c4ccccc4)n[nH]c3C(=O)N2c2ccccc2)ccc1O (stereo not shown) | -13% |
| CC1=Nc2ccccc2/C1=C/c1sc(=N)n(-c2nccs2)c1O | 10.5% |
| CCOC(=O)c1cnc(-n2nc(C)cc2C)nc1Nc1cccc(C(=O)O)c1 | 0.0989% |
| COCCCNC(=S)N1CCC(NC(=O)c2ccco2)CC1 | -4.82% |
| COc1ccc(CC(=O)N/N=C(\C)CC(=O)Nc2ccc3c(c2)OCCO3)cc1 | 8.58% |
| O=C(/C=C/c1ccccc1)n1cnnc1SC/C=C/c1ccccc1 | -0.689% |
| COc1ccc(-n2c(-c3ccc(Br)cc3)nc(=S)c3c2CCCC3)cc1 | -1.32% |
| CCn1c(C)nc2cc(C(=O)NNC(=O)CCC3CCCCC3)ccc21 | -27.4% |
| Cn1c2ccccc2c(=O)c2c(=O)n(Cc3ccccc3)c(-c3ccc(F)cc3)nc21 | 15.5% |
| COc1cccc(C(C(=O)NC2CCCCC2)N(CCN2CCOCC2)C(=O)C2COc3ccccc3O2)c1 (stereo not shown) | -31.3% |
| CCOc1ccc(Nc2cc(C)nc3ccc(C)cc23)cc1 | -69.6% |
| CCCCCC(=O)Nc1ccc(C(=O)COC(=O)CN2C(=O)NC3(CCCC3)C2=O)cc1 | 7.37% |
| Cn1c2ccccc2c(=O)c2ccc(C#CC3(O)CCCCC3)cc21 | 1.63% |
| Cc1cccc(N2CC(C(=O)Nc3nnc(SCC(=O)NCC4CCCO4)s3)CC2=O)c1 (stereo not shown) | 7.97% |
| COc1cccc(C2=NOC(C(=O)Nc3cccnc3Cl)C2)c1 (stereo not shown) | 2.88% |
| CCc1ccc(NC(=O)CN2C(=O)COc3ccc(S(=O)(=O)N4CCCC4)cc32)cc1 | 15.3% |
| CC1(C)C(c2cccs2)=[N+]([O-])C2(CCCCC2=O)N1O (stereo not shown) | 21.1% |
| Cc1cccc(CS(=O)(=O)Cc2ccc(C(=O)NC3CCCCC3)o2)c1 | -7% |
| Cc1cc(C)nc(NC2=NCC(=O)N2c2cccc(Cl)c2)n1 | -13.7% |
| Cn1c(SCC(=O)Nc2ccc3cn[nH]c3c2)nnc1-c1cnccn1 | -18.3% |
| O=C(O)c1cccc(Cn2c(Cl)c(/C=N/NC(=O)c3ccccc3Cl)sc2=O)c1 | 14.5% |

| Compound | hERG current change (%, negative = inhibition) at 10uM |
| --- | --- |
| Cc1ccc2cc(CN(Cc3ccccc3)Cc3nnnn3C3CCCC3)c(=O)[nH]c2c1 | -28.3% |
| FC(F)Sc1nc2ccccc2[nH]1 | 12% |
| CCc1ccc(NC(=O)CC2C(=O)N(c3cccc(C)c3)C(=O)N2C2CC2)cc1 (stereo not shown) | -9.51% |
| CCCCn1c(SCC(=O)NC2CCS(=O)(=O)C2)nc2ccccc2c1=O (stereo not shown) | -24.2% |
| O=C(CONS(=O)(=O)c1ccc(Cl)cc1)NCCNc1ncc(C(F)(F)F)cc1Cl | 25.9% |
| NNC(=O)CP(=O)(c1ccccc1)c1ccccc1 | 6.79% |
| COc1ccc(N(Cc2ccc(N(C)C)cc2)C(=O)c2ccc(S(C)(=O)=O)cc2)cc1 | 13.9% |
| COc1ccc(C(=O)/C=C/Nc2ccc(NC(C)=O)cc2)cc1OC | -12.6% |
| CCOC(=O)c1c(C)n(CC(O)CN(CC)CC)c2cc(Br)c(OC)cc12.Cl (stereo not shown) | -26.9% |
| CC(C)C[C@@H](COc1ccccc1)N1CCN(Cc2ccccc2)CCC1=O | -35.4% |
| COc1ccc(Nc2nc(NCCCN3CCOCC3)nc(N)c2[N+](=O)[O-])cc1 | -22% |
| O=C(CSc1ccc(C(F)(F)F)cc1[N+](=O)[O-])Nc1ccccc1 | 2.76% |
| Cc1cc([N+](=O)[O-])nn1CC(=O)Nc1cnc2ccccc2c1 | -81.1% |
| O=C(CSc1nc(=O)n2ccccc2n1)N1CCN(c2ccccc2)CC1 | -27.7% |
| Cc1ccc(Nc2nc(N)c([N+](=O)[O-])c(NCc3ccco3)n2)cc1 | -5.84% |
| O=c1c2c3c(sc2nc2sc(CN4CCCCC4)cn12)CCCC3 | 9.98% |
| O=C(NCc1ccccn1)C1CC(c2ccc(F)cc2)=NO1 (stereo not shown) | 0.609% |
| COc1ccccc1C(=O)NC(=O)COC(=O)Cn1cnc2c1c(=O)n(C)c(=O)n2C | 3.54% |
| COc1ccc(-c2nn(C)c(=O)c3ccccc23)cc1NC(=O)COc1ccccc1 | 1.5% |
| COCCNC(=S)NC1CC2CCCC(C1)N2Cc1cccs1 (stereo not shown) | -26.7% |
| CC(C1CC1)N(Cc1ccccc1)C(=S)Nc1ccccc1 (stereo not shown) | -27.8% |
| O=C(Nc1ccccc1F)Nc1ccccc1F | 3.37% |

| Compound | hERG current change (%, negative = inhibition) at 10uM |
| --- | --- |
| Cc1cc(C)n(-c2ccc(C(=O)Nc3ccc4c(c3)OCO4)cc2)n1 | 3.19% |
| O=[N+]([O-])c1cc(C(F)(F)F)ccc1N1CCCC(O)C1 (stereo not shown) | -12.1% |
| Cc1cc(NC(=O)C2CC(=O)OC2c2ccccc2)no1 (stereo not shown) | 0.702% |
| CN(C)CCNS(=O)(=O)c1ccc(N2CCc3ccccc32)c([N+](=O)[O-])c1 | -40.4% |
| Cc1ccsc1C(=O)NNC(=O)C1CCCCC1C(=O)O (stereo not shown) | 1.79% |
| Cn1cc(-c2cccc(C(F)(F)F)c2)cc(C#N)c1=O | -5.93% |
| CCOC(=O)c1cnc2ccc(Br)cc2c1NCCO | -9.88% |
| COc1ccc(C(=O)c2ccc(OC)c(OC)c2)cc1OC | 14.1% |
| CCCC(=O)Nc1ccc(C(=O)NNC(=O)c2ccccc2Br)cc1 | 6.14% |
| CCOC(=O)C1=C(C)N=c2s/c(=C\c3cc(OC)c(OC)c(OC)c3)c(=O)n2C1/C=C/c1ccccc1 (stereo not shown) | -15.5% |
| Clc1ccc(Nc2cc(-c3ccccc3)nc3ncnn23)cc1 | 28% |
| CCCCCn1c2c(c(=N)c3ccccc31)CCC2.I | -71.2% |
| CCOC(=O)c1sc(=NC(=O)CCS(=O)(=O)c2ccccc2)n(C)c1C | 8.29% |
| O=C(NC(C(=O)N/N=C/c1cccc2ccccc12)c1n[nH]c(=O)c2ccccc12)c1ccccc1 (stereo not shown) | 7.55% |
| CCN(Cc1ccncc1)Cc1nc(Cc2ccccc2Cl)no1 | -34.8% |
| COc1cc2nc(CN(C)Cc3ccc(OC)c(OC)c3OC)[nH]c(=O)c2cc1OC | 19.7% |
| CC(=O)c1cccc(OCC(O)CNCC2CCCCC2)c1 (stereo not shown) | 10.3% |
| CC(=O)c1c(C(C)=O)c(C)n(-c2ccc(N)c(C)c2)c1C | 18.1% |
| CS(=O)(=O)c1ccccc1COC(=O)Nc1ccc(Cl)cc1 | 0.00428% |
| COc1ccccc1C(=O)N/N=C/c1cnc2ccccc2n1 | 4.1% |
| CCCCCCCCCCC(=O)Nc1cccnc1 | 11.9% |
| COc1ccc(OCC(=O)Nc2ccc3oc(=O)ccc3c2)cc1 | -2.22% |

| Compound | hERG current change (%, negative = inhibition) at 10uM |
| --- | --- |
| O=C(NC(=S)NCC1CCCO1)c1ccccc1Br (stereo not shown) | 4.66% |
| Cc1ccccc1NC(=O)C(Cc1ccccc1)n1cccc1 (stereo not shown) | -0.159% |
| Cc1nc(N2CCC(C)CC2)c2c(C)c(C(=O)Nc3ccccc3C(F)(F)F)sc2n1 | -2.14% |
| CCOc1ccc(Nc2oc(Cc3ccccc3)nc2C#N)cc1 | -1.96% |
| Oc1c(Br)c(Br)c(Br)c(Br)c1Br | 27.7% |
| O=C(Nc1ccccc1)NC1(C(=O)N2CCN(c3ncccn3)CC2)CCCCC1 | 22.2% |
| COc1ccc(-c2ccc(SCC(=O)NC3CCCC3)nn2)cc1OC | 9.57% |
| COC(=O)CN1C(=O)CN=C(c2ccccc2Cl)c2cc(Br)ccc21 | -8.64% |
| OCCOc1nnnn1-c1ccccc1 | 9.26% |
| Cc1ccc(C(=O)c2c(NC(=O)c3ccccc3)sc(C)c2C)cc1 | 25.5% |
| O=C(NC1CCCCC1)c1cc(Cl)nc2ccccc12 | 4.23% |
| Cc1ccc(S(=O)(=O)N2CCCC(C(=O)NCCc3ccccc3)C2)cc1 (stereo not shown) | 11.5% |
| O=C(/C=C/c1ccc(-c2ccccc2[N+](=O)[O-])o1)c1ccc(F)cc1 | -0.214% |
| O=C(c1ccco1)N1CCN(c2ccc([N+](=O)[O-])cc2Cl)CC1 | -71.4% |
| O=C(Nc1ccc(F)cc1)c1cccnc1N1CCCCC1 | -8.27% |
| CN(C)c1ccc(C=NCC2(O)CCOC(C)(C)C2)cc1 (stereo not shown) | 8.24% |
| Oc1ccc(Cl)cc1C1=Nc2ccccc2N=C(c2ccco2)C1 | 0.578% |
| CCC(c1c(C)[nH]oc1=O)c1c(C)[nH]oc1=O | 8.28% |
| O=C(NCC1CCCO1)C(c1ccc(F)cc1)N(C(=O)Cn1nnc(-c2ccc(F)cc2)n1)c1cccc(O)c1 (stereo not shown) | 9.71% |
| CCN(CC(=O)Nc1ccccc1C(F)(F)F)C(=O)CCc1ccccc1 | 4.72% |
| O=C(Nc1cc(C(F)(F)F)ccc1Cl)C(NCc1ccccc1)c1ccccc1 (stereo not shown) | 2.13% |
| CCN(CC)CCCN1C(=O)C2C(C(=O)Nc3ccc(C(C)C)cc3)C3C=CC2(O3)C1C(=O)NC1CCCCC1 (stereo not shown) | 24.7% |
